Screen size: about 310,000 compounds; about 2,200 (0.71%) showed an effect of 50% or more. Effects have a minus sign here. This is one part of the list.
What follows are molecules tested against human ether-à-go-go-related gene (hERG) potassium channel (human, UniProt Q12809) (assay: primary screen, population patch clamp on CHO cells stably expressing hERG).
Chain of human ether-à-go-go-related gene (hERG) potassium channel (Q12809 whole entry, looked up): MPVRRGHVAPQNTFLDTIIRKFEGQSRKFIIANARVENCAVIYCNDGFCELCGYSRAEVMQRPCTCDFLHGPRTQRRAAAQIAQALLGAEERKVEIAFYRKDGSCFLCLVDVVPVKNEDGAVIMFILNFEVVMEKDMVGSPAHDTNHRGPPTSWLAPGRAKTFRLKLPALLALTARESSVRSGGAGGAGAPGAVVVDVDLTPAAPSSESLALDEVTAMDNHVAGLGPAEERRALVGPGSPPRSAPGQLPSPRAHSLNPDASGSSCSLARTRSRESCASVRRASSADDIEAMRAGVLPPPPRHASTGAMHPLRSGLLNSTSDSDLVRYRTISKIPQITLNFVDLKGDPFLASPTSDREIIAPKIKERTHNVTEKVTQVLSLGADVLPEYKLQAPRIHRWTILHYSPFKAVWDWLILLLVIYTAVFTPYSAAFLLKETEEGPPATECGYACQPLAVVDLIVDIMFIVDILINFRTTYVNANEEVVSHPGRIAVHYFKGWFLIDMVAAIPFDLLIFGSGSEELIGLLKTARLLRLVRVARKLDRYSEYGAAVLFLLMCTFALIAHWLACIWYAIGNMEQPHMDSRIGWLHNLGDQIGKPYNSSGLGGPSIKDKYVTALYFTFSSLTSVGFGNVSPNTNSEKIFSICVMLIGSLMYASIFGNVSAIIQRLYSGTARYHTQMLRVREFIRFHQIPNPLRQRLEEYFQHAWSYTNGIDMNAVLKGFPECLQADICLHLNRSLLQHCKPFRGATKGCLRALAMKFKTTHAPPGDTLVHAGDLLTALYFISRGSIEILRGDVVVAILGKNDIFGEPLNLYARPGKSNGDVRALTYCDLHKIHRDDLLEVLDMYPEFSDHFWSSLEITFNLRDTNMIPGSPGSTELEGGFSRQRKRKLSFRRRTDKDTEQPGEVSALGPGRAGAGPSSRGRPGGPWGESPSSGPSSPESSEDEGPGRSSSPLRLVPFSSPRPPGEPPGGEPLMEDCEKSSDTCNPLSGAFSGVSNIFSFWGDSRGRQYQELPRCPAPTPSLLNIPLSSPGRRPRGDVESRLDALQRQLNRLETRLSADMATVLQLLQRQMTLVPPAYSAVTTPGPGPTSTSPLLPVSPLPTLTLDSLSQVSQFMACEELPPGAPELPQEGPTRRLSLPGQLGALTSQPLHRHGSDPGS

Compared with `CCNCC(=O)N1c2ccccc2CCc2ccc(NC(=O)OCC)cc21`, `O=C(CN1C(=O)c2ccccc2C1=O)Nc1cccc(O)c1` is higher in “hERG current change (%, negative = inhibition) at 1uM” value: 9.88% for the first, 13% for the second.

Going from `COc1ccc(C(=O)NCCS(=O)(=O)N2CCOCC2)cc1` to `CC(C)C(=O)Nc1ccc(C(=O)Nc2ccc(S(=O)(=O)N3CCOCC3)cc2)cc1`, the “hERG current change (%, negative = inhibition) at 1uM” value rises from 10.3% to 12.4%.

Compared with `NC(=O)c1c(NC(=O)CN2CCOCC2)sc2c1CCC2`, `CCc1ccc(NC(=O)CS(=O)CC(=O)Nc2ccc(N3CCOCC3)cc2)cc1` (stereo not drawn) is lower in “hERG current change (%, negative = inhibition) at 1uM” value: 11% for the first, 3.75% for the second.

Going from `Cc1ccsc1C(=O)N1CCCC(N(C)Cc2ccccc2)C1` (stereo not drawn) to `COc1ccc(C(=O)N(C)C2CCCN(Cc3ccccc3F)C2)cc1C` (stereo not drawn), the “hERG current change (%, negative = inhibition) at 1uM” value rises from 1.75% to 7.63%.

Compared with `C=CCn1c(=N)c(C(=O)NCCCOC)cc2c(=O)n3ccccc3nc21`, `CC(C)(C)OC(=O)NCCCCCC(=O)N/N=C/c1coc2ccccc2c1=O` is higher in “hERG current change (%, negative = inhibition) at 1uM” value: -22.3% for the first, -0.635% for the second.

Going from `O=C(Cc1cccs1)NCc1ccncc1` to `O=C(NC(=S)NCc1ccncc1)c1ccccc1`, the “hERG current change (%, negative = inhibition) at 1uM” value rises from 3.43% to 10.3%.

First: CCCN(CCC)CCNC(=O)C1CC(=O)N(c2ccc(OC)cc2)C1c1ccc(OC)cc1 (stereo not drawn)
Second: COc1ccc(C2=NN(C(=O)CN3CCCCC3)C(c3ccc(C)cc3)C2)cc1 (stereo not drawn)
The “hERG current change (%, negative = inhibition) at 1uM” value of the first is higher: -18.1% for the first, -33% for the second.

Compared with `COc1ccc(N(CC(=O)NCc2cccnc2)S(=O)(=O)c2c(C)nn(C)c2C)cc1`, `COc1ccc(/C=N/OCC(=O)Nn2c(C)nc3ccccc3c2=O)cc1` is lower in “hERG current change (%, negative = inhibition) at 1uM” value: 16.5% for the first, 2.25% for the second.

Compared with `CCOC(=O)N1CCN(C(=O)CCNS(=O)(=O)c2ccccc2)CC1`, `CN1CCN(S(=O)(=O)c2ccccc2)CC1` is higher in “hERG current change (%, negative = inhibition) at 1uM” value: 10.9% for the first, 12% for the second.

First: O=C(Cc1ccc(N2CCNC2=O)cc1)N1CCCC(Nc2cccc(F)c2)C1 (stereo not drawn)
Second: O=C(Nc1cccc(F)c1)c1ccccc1
The “hERG current change (%, negative = inhibition) at 1uM” value of the first is lower: 11.6% for the first, 13.3% for the second.

Going from `Cc1oc(-c2ccc(Cl)cc2)nc1CS(=O)CC(=O)NC1CC1` (stereo not drawn) to `CC(C)Cc1ccc(CN2CCCC(NC(=O)Cn3cnnn3)C2)cc1` (stereo not drawn), the “hERG current change (%, negative = inhibition) at 1uM” value falls from 14.6% to -3.42%.

Going from `O=C(O)c1cc(S(=O)(=O)N(Cc2ccccc2)c2cccc(C(F)(F)F)c2)ccc1Cl` to `O=c1[nH]c2ccccc2cc1CN(c1ccccc1)S(=O)(=O)c1ccccc1`, the “hERG current change (%, negative = inhibition) at 1uM” value falls from 13.9% to 6.79%.

First: CC(C)C[C@@H](CO)N1CCN(Cc2ccc(Br)cc2)CCC1=O
Second: Cc1cc([P+](=O)O)c(C)n1-c1ccc(Br)cc1
The “hERG current change (%, negative = inhibition) at 1uM” value of the first is lower: 4.05% for the first, 16.1% for the second.

Going from `COc1ccc([C@H]2/C=C\CN(S(=O)(=O)c3cccc4cccnc34)[C@@H](C)C(=O)N2Cc2ccc(F)cc2)cc1` to `COc1ccc(Cn2c(-c3ccc(C)cc3)nc3c(c(=O)c4ccccc4n3C)c2=O)cc1`, the “hERG current change (%, negative = inhibition) at 1uM” value rises from 5.13% to 5.61%.

Compared with `O=C(NC(O)C(=O)c1ccccc1)c1cccs1` (stereo not drawn), `O=C(CSc1ccccc1C(=O)O)c1ccccc1` is lower in “hERG current change (%, negative = inhibition) at 1uM” value: 12.3% for the first, 10.1% for the second.

First: CCOC(=O)CSc1nnc(CNc2nc(-c3ccccc3)cs2)n1C
Second: Cc1ccc(-n2c(SCC(=O)NCCN3C(=O)CSC3=O)nnc2-c2ccccc2)cc1
The “hERG current change (%, negative = inhibition) at 1uM” value of the first is lower: -8.88% for the first, 27% for the second.

First: CCN(c1ccccc1)S(=O)(=O)c1ccc(F)cc1
Second: O=C(NNS(=O)(=O)c1ccc(F)cc1)c1ccc([N+](=O)[O-])cc1
The “hERG current change (%, negative = inhibition) at 1uM” value of the first is lower: 8.48% for the first, 14.2% for the second.

Going from `CCN(Cc1nc2ccccc2c(=O)[nH]1)C(=O)c1cc2c(s1)CCCCC2` to `CCN(CC)Cc1nc2c(c(=O)[nH]1)C1(CCCCC1)Cc1ccccc1-2`, the “hERG current change (%, negative = inhibition) at 1uM” value falls from 18.4% to 12%.

Compared with `CN(C)C(=O)Nc1cccc(OC(=O)N(C)C)c1`, `CC(=O)c1cccc(NC(=O)NCc2cccs2)c1` is lower in “hERG current change (%, negative = inhibition) at 1uM” value: 15% for the first, -3.79% for the second.

Compared with `CC1(C)C(C(=O)OCC(Cl)(Cl)Cl)N2C(=O)C(NC(=O)Cc3ccccc3)C2S1=O` (stereo not drawn), `CC(=NCCc1ccccc1)C1=C(O)COC1=O` is lower in “hERG current change (%, negative = inhibition) at 1uM” value: 8.85% for the first, 8.33% for the second.

Compared with `COCCN(C(=O)c1csnn1)C(C(=O)NC1CCCC1)c1ccccc1` (stereo not drawn), `Cc1cc(C(=O)NNC(=S)NC2CCCCC2)cs1` is lower in “hERG current change (%, negative = inhibition) at 1uM” value: 11.2% for the first, 6.05% for the second.

Compared with `C=CCSc1ncnc2c1oc1nc3c(cc12)COC(C)(C)C3`, `Cc1ccc(-n2ncc3c(NCc4cccnc4)ncnc32)c(C)c1` is lower in “hERG current change (%, negative = inhibition) at 1uM” value: 14.1% for the first, -4.19% for the second.

First: CC1Cc2ccccc2N1C(=O)c1ccnc(C(C)(C)C)c1 (stereo not drawn)
Second: CN(NC(=O)c1ccccc1F)c1ncccc1[N+](=O)[O-]
The “hERG current change (%, negative = inhibition) at 1uM” value of the first is higher: 17.6% for the first, 14.1% for the second.

Going from `CCOC(=O)CNC(=O)c1ccc2[nH]c3c(c2c1)CCCC3` to `COc1ccc(C(=O)NCC(=O)OCc2ccc(F)cc2Cl)cc1OC`, the “hERG current change (%, negative = inhibition) at 1uM” value falls from 14.5% to 11.2%.

Going from `Cl.Clc1cccc(NC2=NCCC2)c1` to `O=C(CNC(=O)c1ccc(Cl)cc1Cl)OCC(=O)N1CCN(c2ccccc2)CC1`, the “hERG current change (%, negative = inhibition) at 1uM” value falls from 8.75% to -4.05%.

Compared with `O=C(Nc1ccc(F)cc1F)c1csc(-c2ccccc2)n1`, `O=C(NCc1ccncc1)c1ccc2nc(Cc3ccccc3F)oc2c1` is higher in “hERG current change (%, negative = inhibition) at 1uM” value: 3.26% for the first, 8.99% for the second.

Going from `Cc1scc(C(=O)NNC(=O)CCC(=O)O)c1C` to `Cc1cccc(OCC(=O)NNC(=O)c2ccccc2OCc2c(C)noc2C)c1`, the “hERG current change (%, negative = inhibition) at 1uM” value falls from 6.37% to -0.118%.

Compared with `Cc1nc2ccc(Cl)cc2nc(C)/c1=N\O`, `Fc1ccc(Oc2ccnc(Cl)n2)c(Cl)c1` is higher in “hERG current change (%, negative = inhibition) at 1uM” value: 10% for the first, 12.1% for the second.

Compared with `COc1ccc(C(Nc2ccccn2)c2c(NC(=O)c3ccco3)sc(C)c2C)cc1OC` (stereo not drawn), `CCC(NC(=O)c1ccccc1NC(=O)c1ccco1)C(=O)NNC(=O)c1ccc(OC)cc1` (stereo not drawn) is higher in “hERG current change (%, negative = inhibition) at 1uM” value: 7.04% for the first, 11.8% for the second.

First: CN(CCc1ccccn1)C(=O)CC1C(=O)NCCN1Cc1ccc(-c2ccccc2)cc1 (stereo not drawn)
Second: CN(C(=O)c1cccc(COc2ccc(Cl)cc2Cl)c1)c1ccccc1
The “hERG current change (%, negative = inhibition) at 1uM” value of the first is lower: 5.5% for the first, 10.5% for the second.

Compared with `CC(C)n1ncc2c(C(=O)NCC(=O)Nc3ccccc3Br)cc(C3CC3)nc21`, `Cc1ccc(S(=O)(=O)Nc2ccccc2F)cc1C(=O)NNC(=O)c1csc(N2CCOCC2)n1` is higher in “hERG current change (%, negative = inhibition) at 1uM” value: 2.02% for the first, 6% for the second.

First: CCOC(=O)c1[nH]c(C)c(C(=O)NC2CCCC2)c1C
Second: COC(=O)c1c(-c2cc(C)ccc2C)csc1NC(=O)C1CC=CCC1C(=O)O (stereo not drawn)
The “hERG current change (%, negative = inhibition) at 1uM” value of the first is higher: 0.699% for the first, -7.42% for the second.

Going from `Cc1nc(N2CCOCC2)nc(N2CCCCC2C)c1[N+](=O)[O-]` (stereo not drawn) to `CN(C)P(=O)(C(Cl)=C(N1CCCCC1)N1CCCCC1)N(C)C`, the “hERG current change (%, negative = inhibition) at 1uM” value falls from 9.24% to 6.95%.

Compared with `NNC(=O)c1ccc2c(c1)S(=O)(=O)NNC2=O`, `O=C(NCc1ccc2c(c1)OCO2)c1ccc2c(c1)C(=O)N(CC1CCCO1)C2=O` (stereo not drawn) is lower in “hERG current change (%, negative = inhibition) at 1uM” value: 7.07% for the first, 6.29% for the second.

Compared with `COc1ccc(OC)c(N2C(=O)/C(=C/c3ccco3)C(=O)NC2=S)c1`, `COc1ccc(CCNC(=O)COc2cc(C)cc3oc(=O)cc(C)c23)cc1` is lower in “hERG current change (%, negative = inhibition) at 1uM” value: 14.1% for the first, 10.2% for the second.

First: COc1cc(SC)ccc1C(=O)N(Cc1ccccc1)c1ccccc1
Second: Cc1ccccc1OCC(=O)NNC(=O)Nc1ccccc1
The “hERG current change (%, negative = inhibition) at 1uM” value of the first is higher: 14% for the first, 9.56% for the second.

Going from `Cc1nn(-c2ccc(N3CCCCC3)nn2)c(C)c1CCC(=O)Nc1cc(F)ccc1F` to `CCOc1cc(/C=N/NC(=O)CSc2nncn2C)ccc1OC(=O)c1ccc(Cl)cc1`, the “hERG current change (%, negative = inhibition) at 1uM” value falls from 10.2% to 1.72%.

First: CC(C)C1=NN2C(=N)CC(=O)N=C2S1
Second: CC(C)c1ccc(C2CC(=O)N3CN(C)CSC3=C2C#N)cc1 (stereo not drawn)
The “hERG current change (%, negative = inhibition) at 1uM” value of the first is higher: 9.22% for the first, 4.51% for the second.

Compared with `Br.CN1CCN(c2nc(-c3cccs3)cs2)CC1`, `CCN1CCN(c2cc(=O)n3ccccc3n2)CC1` is higher in “hERG current change (%, negative = inhibition) at 1uM” value: 4.91% for the first, 16.5% for the second.

Compared with `O=C(NCCCl)Nc1cc([N+](=O)[O-])ccc1Cl`, `CONC(=O)Nc1ccccc1[N+](=O)[O-]` is lower in “hERG current change (%, negative = inhibition) at 1uM” value: 9.43% for the first, 7.76% for the second.

Going from `CN(C)/C=N/c1cc(=O)n(Cc2ccccc2)c(=O)n1C` to `c1ccn2c(c1)nc1c2nc2ccccn21`, the “hERG current change (%, negative = inhibition) at 1uM” value rises from 4.2% to 13.2%.

Going from `COc1ccccc1Oc1cc(C#N)c(C#N)cc1-n1nnc2ccccc21` to `N#CCCn1cc(/C=C(\C#N)c2nc3ccccc3s2)c(-c2ccc(F)cc2)n1`, the “hERG current change (%, negative = inhibition) at 1uM” value rises from 0.887% to 13.1%.

Going from `Cc1nc2scc(C)n2c(=O)c1S(=O)(=O)Nc1ccc(OC(F)(F)F)cc1` to `CCOc1ccc(NC(=S)NNC(=O)c2cc(Br)ccc2Cl)cc1`, the “hERG current change (%, negative = inhibition) at 1uM” value falls from 17.5% to 7.12%.

Compared with `COCc1c(C(=O)OCC(=O)NCCc2ccc(S(N)(=O)=O)cc2)oc2ccccc12`, `CCN(CC)S(=O)(=O)c1ccc(Cl)c(NC(=O)COC(=O)/C=C/c2cc(OC)c(OC)c(OC)c2)c1` is higher in “hERG current change (%, negative = inhibition) at 1uM” value: 5.78% for the first, 11.4% for the second.

First: COc1cc(C)cc(OC)c1OCC(=O)Nc1cc(C)on1
Second: Cc1ccc(C(=O)N2CCN(c3ccc(NC(=O)c4ccc5c(c4)OCCO5)cc3)CC2)cc1
The “hERG current change (%, negative = inhibition) at 1uM” value of the first is higher: 21.5% for the first, 1.08% for the second.

Reference: article PMC4336329 (PLoS ONE, 2015)
